Reference: patent publication US20210275686A1, “BINDER/ACTIVE AGENT CONJUGATES DIRECTED AGAINST CXCR5, HAVING ENZYMATICALLY CLEAVABLE LINKERS AND IMPROVED ACTIVITY PROFILE” (BAYER AKTIENGESELLSCHAFT, priority 2018, published 2021)

Key:
[1] = test system: moderately CXCR5-expressing SU-DHL6 cell line; test: FACS-based internalization assay, SU-DHL-6; format: cell-based, human; details: 10 μg/ml, 37° C.
Excerpt: SU-DHL-6: human B cell lymphoma cells (B cell non-Hodgkin, described as diffuse, mixed small and large cell type; cell line) ATCC-CRL-2959, standard medium: RPMI-1640 High Glucose (ATCC 30-2001) with L-glutamine, Hepes, sodium pyruvate+10% FCS (FBS Gibco 10500-064 heat inactivated, EU approved), CXCR5 positive.
(§1) Internalization is the key process for enabling specific and efficient preparation of the cytotoxic payload in antigen-expressing cancer cells by antibody-drug conjugates (ADC). This process is carried out by fluorescent labeling of specific antibodies and an isotype control antibody. For this purpose, first the conjugation of the fluorescent dye to lysine of the antibody was performed. The conjugation was conducted with a two-fold to 10-fold molar excess of CypHer 5E mono NHS ester (Batch 357392, GE Healthcare) at pH 8.3. After coupling was completed, the reaction mixture was purified by gel chromatography (Zeba Spin Desalting Columns, 40K, Thermo Scientific, No. 87768; elution buffer: DULBECCO'S PBS, Sima-Aldrich, No. D8537), to eliminate excess dye and adjust the pH. The protein solution was concentrated using VIVASPIN 500 columns (Sartorius stedim biotec). The determination of the dye load of the antibody was performed by spectrophotometric analysis (NanoDrop) followed by calculation (D/P=Adye[…]protein:(A280−0.16Adye)[…]dye).
(§2) The antigen to be investigated is expressed by hematopoietic suspension cells, and therefore the internalization was examined in a FACS-based internalization assay.
(§3) Cells with various target expression levels were investigated. The cells (5×10^4/well) were seeded in a 96-MTP (Greiner bio-one, CELLSTAR, 650 180, U-bottom) in 100 μL total volume. After addition of the target-specific antibody at a final concentration of 10 μg/ml, the reaction mixtures were incubated at 37° C. for different lengths of time (1 h, 2 h, 6 h, triplicate determination). The isotype check was handled under identical conditions. A parallel reaction mixture was kept constantly and incubated at 4° C. (negative control). The FACS analysis was performed using the Guava flow cytometer (Millipore). The kinetic evaluation was done by measuring the fluorescence intensity, and the assessment was conducted using the guavaSoft 2.6 software (Millipore). A significant and specific internalization was detected in various cells for the target-specific antibody described here.
(§4) The observed fluorescence intensities (MFI) for the CXCR5 high-expressing Rec-1 cell line and the moderately CXCR5-expressing SU-DHL6 cell line are summarized in Table 3.

[2] = test system: CXCR5 high-expressing Rec-1 cell line; test: FACS-based internalization assay, Rec-1; format: cell-based, human; details: 10 μg/ml, 37° C.
Protocol: as §1, §2, §3, §4

Molecule	internalization on SU-DHL-6 cells in contrast to TPP-10063 and 40C01 (in words) [1]	internalization on Rec-1 cells in contrast to TPP-10063 and 40C01 (in words) [2]
TPP-14495: anti-CXCR5 antibody, heavy chain SEQ ID NO: 9, light chain SEQ ID NO: 10 (antibody) heavy: EVQLLESGGGLVQPGGSLRLSCAASGFTFSNYWMSWVRQAPGKGLEWVSAISGSGGSTRYADSVKGRFTISRDNSKNTLYLQMNSLRAEDTAVYYCTTQRRELGATNWGQGTLVTVSS[letters of human IgG1 constant region left out] light: QSVLTQPPSASGTPGQRVTISCTGSSSNIGAGYVVHWYQQLPGTAPKLLIYSNNQRPSGVPDRFSGSKSGTSASLAISGLRSEDEADYYCQSYDSSLSGVVFGGGTKLTVLGQPKAAPSVTLFPPSSEELQANKATLVCLISDFYPGAVTVAWKADSSPVKAGVETTTPSKQSNNKYAASSYLSLTPEQWKSHRSYSCQVTHEGSTVEKTVAPTECS	no improvement	improved
TPP-14511: anti-CXCR5 antibody, heavy chain SEQ ID NO: 49, light chain SEQ ID NO: 50 (antibody) heavy: EVQLLESGGGLVQPGGSLRLSCAASGFTFSNYWMSWVRQAPGKGLEWVSAISGSGGTTYYADSVKGRFTISRDNSKNTLYLQMNSLRAEDTAVYYCTTQRRELGATNWGQGTLVTVSS[letters of human IgG1 constant region left out] light: QSVLTQPPSASGTPGQRVTISCTGSSSNIGAGYVVHWYQQLPGTAPKLLIYSNNQRPSGVPDRFSGSKSGTSASLAISGLRSEDEADYYCQSYDSSLSGVVFGGGTKLTVLGQPKAAPSVTLFPPSSEELQANKATLVCLISDFYPGAVTVAWKADSSPVKAGVETTTPSKQSNNKYAASSYLSLTPEQWKSHRSYSCQVTHEGSTVEKTVAPTECS	improved	improved
TPP-14509: anti-CXCR5 antibody, heavy chain SEQ ID NO: 39, light chain SEQ ID NO: 40 (antibody) heavy: EVQLLESGGGLVQPGGSLRLSCAASGFTFSNYWMSWVRQAPGKGLEWVSAISGSGGSTYYADSVKGRFTISRDNSKNTLYLQMNSLRAEDTAVYYCTVQRRELGATNWGQGTLVTVSS[letters of human IgG1 constant region left out] light: QSVLTQPPSASGTPGQRVTISCTGSSSNIGAGYVVHWYQQLPGTAPKLLIYSNNQRPSGVPDRFSGSKSGTSASLAISGLRSEDEADYYCQSYDSSLSGVVFGGGTKLTVLGQPKAAPSVTLFPPSSEELQANKATLVCLISDFYPGAVTVAWKADSSPVKAGVETTTPSKQSNNKYAASSYLSLTPEQWKSHRSYSCQVTHEGSTVEKTVAPTECS	improved	improved
TPP-14514: anti-CXCR5 antibody, heavy chain SEQ ID NO: 59, light chain SEQ ID NO: 60 (antibody) heavy: EVQLLESGGGLVQPGGSLRLSCAASGFTFSNNWMSWVRQAPGKGLEWVSAISGSGGSTYYADSVKGRFTISRDNSKNTLYLQMNSLRAEDTAVYYCTVQRRELGATNWGQGTLVTVSS[letters of human IgG1 constant region left out] light: QSVLTQPPSASGTPGQRVTISCTGSSSNIGAGYVVHWYQQLPGTAPKLLIYSNNQRPSGVPDRFSGSKSGTSASLAISGLRSEDEADYYCQSYDSSLSGVVFGGGTKLTVLGQPKAAPSVTLFPPSSEELQANKATLVCLISDFYPGAVTVAWKADSSPVKAGVETTTPSKQSNNKYAASSYLSLTPEQWKSHRSYSCQVTHEGSTVEKTVAPTECS	improved	improved
TPP-14505: anti-CXCR5 antibody, heavy chain SEQ ID NO: 29, light chain SEQ ID NO: 30 (antibody) heavy: EVQLLESGGGLVQPGGSLRLSCAASGFTFSNNWMSWVRQAPGKGLEWVSAISGSGGSTYYADSVKGRFTISRDNSKNTLYLQMNSLRAEDTAVYYCNVQRRELGATNWGQGTLVTVSS[letters of human IgG1 constant region left out] light: QSVLTQPPSASGTPGQRVTISCTGSSSNIGAGYVVHWYQQLPGTAPKLLIYSNNQRPSGVPDRFSGSKSGTSASLAISGLRSEDEADYYCQSYDSSLSGVVFGGGTKLTVLGQPKAAPSVTLFPPSSEELQANKATLVCLISDFYPGAVTVAWKADSSPVKAGVETTTPSKQSNNKYAASSYLSLTPEQWKSHRSYSCQVTHEGSTVEKTVAPTECS	improved	improved
TPP-14499: anti-CXCR5 antibody, heavy chain SEQ ID NO: 19, light chain SEQ ID NO: 20 (antibody) heavy: EVQLLESGGGLVQPGGSLRLSCAASGFTFSNYWGSWVRQAPGKGLEWVSAISGSGGSTYYADSVKGRFTISRDNSKNTLYLQMNSLRAEDTAVYYCTVLRRELGATNWGQGTLVTVSS[letters of human IgG1 constant region left out] light: QSVLTQPPSASGTPGQRVTISCTGSSSNIGAGYVVHWYQQLPGTAPKLLIYSNNQRPSGVPDRFSGSKSGTSASLAISGLRSEDEADYYCQSYDSSLSGVVFGGGTKLTVLGQPKAAPSVTLFPPSSEELQANKATLVCLISDFYPGAVTVAWKADSSPVKAGVETTTPSKQSNNKYAASSYLSLTPEQWKSHRSYSCQVTHEGSTVEKTVAPTECS	improved	improved
